Laboratory results: the supplement of paper PMC8728848
The other results are listed elsewhere or left out.

Key:
Assay in all cases: glycan array binding signal (z-score within array); higher = stronger binding
Details in all cases: glycan notation: IUPAC condensed, linker removed
[1] = biological target: Gal(b1-3)GlcNAc(a1-6)Gal(b1-4)GlcNAc
Method in brief: (§1)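 The binding signal is a Z-score computed within each array. Data were drawn from 3228 arrays in the Consortium for Functional Glycomics database, restricted to those with a known protein sequence. Scores were averaged over arrays of the same protein sequence at different concentrations or buffers, and over linkers, and negative values can be taken as non-binding.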

[2] = biological target: Gal(b1-3)GlcNAc(b1-2)Man(a1-3)[Gal(b1-3)GlcNAc(b1-2)Man(a1-6)]Man(b1-4)GlcNAc(b1-4)GlcNAc
Method in brief: as §1

[3] = biological target: Gal(b1-3)GlcNAc(b1-2)Man(a1-3)[Gal(b1-3)GlcNAc(b1-2)Man(a1-6)]Man(b1-4)GlcNAc(b1-4)[Fuc(a1-6)]GlcNAc
Method in brief: as §1

[4] = biological target: Gal(b1-3)GlcNAc(b1-2)[Gal(b1-3)GlcNAc(b1-6)]Man(a1-6)[Gal(b1-3)GlcNAc(b1-2)Man(a1-3)]Man(b1-4)GlcNAc(b1-4)GlcNAc
Method in brief: as §1

[5] = biological target: Gal(b1-3)GlcNAc(b1-3)Gal(b1-3)GlcNAc
Method in brief: as §1

[6] = biological target: Gal(b1-3)GlcNAc(b1-3)Gal(b1-4)Glc
Method in brief: as §1

[7] = biological target: Gal(b1-3)GlcNAc(b1-3)Gal(b1-4)GlcNAc
Method in brief: as §1

[8] = biological target: Gal(b1-3)GlcNAc(b1-3)Gal(b1-4)GlcNAc(b1-6)[Gal(b1-3)GlcNAc(b1-3)]Gal(b1-4)Glc
Method in brief: as §1

[9] = biological target: Gal(b1-3)GlcNAc(b1-3)Gal(b1-4)[Fuc(a1-3)]GlcNAc(b1-6)[Gal(b1-3)GlcNAc(b1-3)]Gal(b1-4)Glc
Method in brief: as §1

[10] = biological target: Gal(b1-3)GlcNAc(b1-3)GalNAc
Method in brief: as §1

[11] = biological target: Gal(b1-3)GlcNAc(b1-6)Gal(b1-4)GlcNAc
Method in brief: as §1

[12] = biological target: Gal(b1-3)[Fuc(a1-4)]GlcNAc
Method in brief: as §1

[13] = biological target: Gal(b1-3)[Fuc(a1-4)]GlcNAc(b1-2)Man(a1-3)[Gal(b1-3)[Fuc(a1-4)]GlcNAc(b1-2)Man(a1-6)]Man(b1-4)GlcNAc(b1-4)GlcNAc
Method in brief: as §1

[14] = biological target: Gal(b1-3)[Fuc(a1-4)]GlcNAc(b1-2)Man(a1-3)[Gal(b1-3)[Fuc(a1-4)]GlcNAc(b1-2)Man(a1-6)]Man(b1-4)GlcNAc(b1-4)[Fuc(a1-6)]GlcNAc
Method in brief: as §1

[15] = biological target: Gal(b1-3)[Fuc(a1-4)]GlcNAc(b1-3)Gal(b1-3)[Fuc(a1-4)]GlcNAc
Method in brief: as §1

[16] = biological target: Gal(b1-3)[Fuc(a1-4)]GlcNAc(b1-3)Gal(b1-4)GlcNAc
Method in brief: as §1

[17] = biological target: Gal(b1-3)[Fuc(a1-4)]GlcNAc(b1-3)Gal(b1-4)[Fuc(a1-3)]GlcNAc
Method in brief: as §1

[18] = biological target: Gal(b1-3)[GlcNAc(b1-6)]GalNAc
Method in brief: as §1

[19] = biological target: Gal(b1-3)[Neu5Ac(a2-6)]GalNAc
Method in brief: as §1

[20] = biological target: Gal(b1-3)[Neu5Ac(a2-6)]GlcNAc(b1-6)Gal(b1-4)Glc
Method in brief: as §1

[21] = biological target: Gal(b1-3)[Neu5Ac(b2-6)]GalNAc
Method in brief: as §1

Gal(b1-4)Gal = biological target: Gal(b1-4)Gal
Method in brief: as §1

[22] = biological target: Gal(b1-4)GalNAc(a1-3)[Fuc(a1-2)]Gal(b1-4)GlcNAc
Method in brief: as §1

[23] = biological target: Gal(b1-4)GalNAc(b1-3)[Fuc(a1-2)]Gal(b1-4)GlcNAc
Method in brief: as §1

Gal(b1-4)Glc = biological target: Gal(b1-4)Glc
Method in brief: as §1

Gal(b1-4)Glc6S = biological target: Gal(b1-4)Glc6S
Method in brief: as §1

Gal(b1-4)GlcNAc = biological target: Gal(b1-4)GlcNAc
Method in brief: as §1

[24] = biological target: Gal(b1-4)GlcNAc(a1-6)Gal(b1-4)GlcNAc
Method in brief: as §1

Gal(b1-4)GlcNAc(b1-2)Man = biological target: Gal(b1-4)GlcNAc(b1-2)Man
Method in brief: as §1

[25] = biological target: Gal(b1-4)GlcNAc(b1-2)Man(a1-3)Man(b1-4)GlcNAc(b1-4)GlcNAc
Method in brief: as §1

B1: NanI (Corynebacterium diphtheriae), C6JSW7 (protein)
chain: MTNTLESNPMTTTTGALTITFATTCDGPLAHIPHHLDLNIIHGRIQGTTAHRRIDAEDPDGLDDGLPHHLCLSVDTTGTHLFIDGYEAFSTTQTEWFDTSELTLNPHGDLTIIDHQILNHAPTPRQARNLAPAAEPLVWFAGSHLSTRDTQRISHLTHGSLRLLMKTRGTGQGGVAFQAHTINGDLTLEIIDGTLIFSVRCHDEDYVRITAPGRWDDGQIYDVVIVCGRGATDIYVDGQQLIHSPGAAFFNDLSGELSVHIGTAASGVRLFGEVQSGMIYPHVFNHHQVQRLATVEPIATQALFDCLLDGAQSYRIPSLITTDSGVIIAGADKRVSIANDAPNDIDFVLRRSVDGGRTWQPPRTILQLPDTACVTDSVLLQDHTTGRIFAFLDQFPAGIGQPNAAFGTGFDADGNRIGHFADGSTCTMPREVDQLEASFFSDPHTAPPGIVFQHPSCHLWMLTSDDDGLTWSTPRDLTPDVKEEWMRFCGTSPGNGIQLQRDTHAGRLLIPMYYTKGDQFFAAALYSDDHGDTWHRGESPDLEMYESTLVEASDGSVLLWARNQHPSGAVAHARSTDGGHSWSQVTFNPNVPEIFSQPNALRVTNPDGIIFANASQLLPFRGRGVLRMSTNDGASWQHNRVFNPRHYVYQCMTQLPDGSIGLLWEREMQGLFFSIIPMTWIMQGYAL
- glycan array binding signal (z-score) [1]: -0.445
- glycan array binding signal (z-score) [2]: -0.332
- glycan array binding signal (z-score) [3]: 0.264
- glycan array binding signal (z-score) [4]: -0.253
- glycan array binding signal (z-score) [5]: -0.24
- glycan array binding signal (z-score) [6]: -0.513
- glycan array binding signal (z-score) [7]: -0.639
- glycan array binding signal (z-score) [8]: -1
- glycan array binding signal (z-score) [9]: -0.386
- glycan array binding signal (z-score) [10]: -1.11
- glycan array binding signal (z-score) [11]: 0.002
- glycan array binding signal (z-score) [12]: 0.17
- glycan array binding signal (z-score) [13]: 1.18
- glycan array binding signal (z-score) [14]: 0.086
- glycan array binding signal (z-score) [15]: -0.534
- glycan array binding signal (z-score) [16]: 0.773
- glycan array binding signal (z-score) [17]: 0.271
- glycan array binding signal (z-score) [18]: -0.012
- glycan array binding signal (z-score) [19]: -0.562
- glycan array binding signal (z-score) [20]: -0.766
- glycan array binding signal (z-score) [21]: -0.195
- glycan array binding signal (z-score) (Gal(b1-4)Gal): -0.102
- glycan array binding signal (z-score) [22]: -0.044
- glycan array binding signal (z-score) [23]: -0.036
- glycan array binding signal (z-score) (Gal(b1-4)Glc): -0.063
- glycan array binding signal (z-score) (Gal(b1-4)Glc6S): 0.582
- glycan array binding signal (z-score) (Gal(b1-4)GlcNAc): -0.048
- glycan array binding signal (z-score) [24]: -0.174
- glycan array binding signal (z-score) (Gal(b1-4)GlcNAc(b1-2)Man): 0.486
- glycan array binding signal (z-score) [25]: 0.048
